Laboratory results as given in the supplement of paper PMC3334620.
Whole data set: some 33,000 sequences, median “E-score (-0.5 to 0.5)” near -0.035, cut for the highest 2% near 0.34. The list shows a part of the results.

What follows are sequences tested against T1, Mot3 (UniProt P54785) (assay: PBM E-score (8-mer binding enrichment) (E-score (-0.5 to 0.5)); higher = stronger / more preferred TF binding; most listed sequences are background and not binding sites). Settings: protein concentration: 200 nM; construct: GST-full length.
T1 sequence: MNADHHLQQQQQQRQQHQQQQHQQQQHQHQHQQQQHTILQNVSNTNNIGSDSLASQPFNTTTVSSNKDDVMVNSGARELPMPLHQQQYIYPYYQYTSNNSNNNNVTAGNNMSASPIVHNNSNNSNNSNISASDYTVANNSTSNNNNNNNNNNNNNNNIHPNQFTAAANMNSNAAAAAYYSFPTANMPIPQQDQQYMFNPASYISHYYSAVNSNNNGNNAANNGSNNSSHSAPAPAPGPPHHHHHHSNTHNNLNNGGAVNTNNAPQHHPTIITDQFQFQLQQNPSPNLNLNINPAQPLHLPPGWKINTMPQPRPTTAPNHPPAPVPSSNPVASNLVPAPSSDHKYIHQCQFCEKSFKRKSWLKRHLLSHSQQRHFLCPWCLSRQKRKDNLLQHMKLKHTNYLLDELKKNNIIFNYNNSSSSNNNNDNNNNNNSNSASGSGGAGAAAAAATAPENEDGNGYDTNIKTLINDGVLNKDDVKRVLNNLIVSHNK
Method in brief: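 Yeast transcription factors, full-length or as DNA-binding domains, were expressed with a GST tag using PURExpress in vitro transcription/translation. At about 100-200 nM they were applied to universal all-10-mer Agilent arrays, double-stranded by primer extension on fresh or once-stripped slides. Fluorescent anti-GST detected bound protein, and masliner normalised the scans. E-scores for ungapped eight-base words, pooled with reverse complements, came from the Universal PBM Analysis Suite.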
In the case of GCCCGTAA, the “PBM E-score” value is reported as 0.119.
For GGAATAGA, the “PBM E-score” value was -0.0446.
With CAGAGAAG the “PBM E-score” value was -0.103.
In the case of CGACCGAA, the “PBM E-score” value is reported as -0.101.
With AAGGGTAT the “PBM E-score” value was -0.018.
For GAAGTTGA, the “PBM E-score” value was -0.0119.
With AGAGTGGA the “PBM E-score” value was -0.0533.
For GCGACGAC, the “PBM E-score” value was -0.289.
In the case of GAACGCGC, the “PBM E-score” value is reported as 0.147.
For ACCACAAT, the “PBM E-score” value was -0.103.
In the case of GCCGTTCA, the “PBM E-score” value is reported as -0.252.
For GAGACCTA, the “PBM E-score” value was -0.143.
CCATAGAG was tested, and the “PBM E-score” value was -0.222.
In the case of CCACTAGC, the “PBM E-score” value is reported as -0.224.
In the case of CCACAAGG, the “PBM E-score” value is reported as 0.094.
GCGGATCC was tested, and the “PBM E-score” value was -0.312.
For AATTCATG, the “PBM E-score” value was 0.241.
For AGGTGAAA, the “PBM E-score” value was 0.071.
In the case of ACTCACAA, the “PBM E-score” value is reported as -0.0657.
With CAATGCCC the “PBM E-score” value was -0.0882.
In the case of CACCGATC, the “PBM E-score” value is reported as -0.203.
With CTACCTTC the “PBM E-score” value was 0.0953.
In the case of ACGAGTTC, the “PBM E-score” value is reported as 0.145.
CAAGACAG was tested, and the “PBM E-score” value was 0.069.
In the case of CAGCAATG, the “PBM E-score” value is reported as -0.122.
In the case of AGACGGTG, the “PBM E-score” value is reported as -0.156.
With GGCCAACA the “PBM E-score” value was -0.054.
For CCCAGCGA, the “PBM E-score” value was -0.0667.
ACACAGAT was tested, and the “PBM E-score” value was 0.206.
For ATGGGGAC, the “PBM E-score” value was -0.196.
For ACCTCTCA, the “PBM E-score” value was -0.0845.
In the case of CTACTAAC, the “PBM E-score” value is reported as 0.182.
With ATGCCGAC the “PBM E-score” value was -0.0646.
In the case of GCCGCCGC, the “PBM E-score” value is reported as -0.223.
For ACTACCCG, the “PBM E-score” value was -0.117.
For CTCATCGA, the “PBM E-score” value was -0.234.
In the case of AAAGCAGC, the “PBM E-score” value is reported as -0.0796.
In the case of CAAAGACG, the “PBM E-score” value is reported as -0.227.
With AACGCCAC the “PBM E-score” value was -0.058.
With CATGATTA the “PBM E-score” value was 0.119.
For ATACCGGG, the “PBM E-score” value was -0.126.
For CTACTGAC, the “PBM E-score” value was -0.185.
In the case of GGTGTCAC, the “PBM E-score” value is reported as 0.0186.
With GCCAGACA the “PBM E-score” value was -0.159.
With AGTGCTGG the “PBM E-score” value was -0.23.
In the case of CGGGAAGA, the “PBM E-score” value is reported as -0.0327.
In the case of ATGTTATC, the “PBM E-score” value is reported as 0.239.
In the case of ACAAACTG, the “PBM E-score” value is reported as -0.104.
In the case of AGGCGAGG, the “PBM E-score” value is reported as -0.279.
In the case of AGTTATCA, the “PBM E-score” value is reported as -0.0877.
CGCCTCCG was tested, and the “PBM E-score” value was -0.126.
With GAGCTATA the “PBM E-score” value was -0.085.
For ATTCTCTG, the “PBM E-score” value was -0.122.
With TGTATCAA the “PBM E-score” value was 0.117.
ACCCGAGC was tested, and the “PBM E-score” value was -0.158.
AGAACTAT was tested, and the “PBM E-score” value was -0.0425.
With TAAGATCA the “PBM E-score” value was -0.0767.
For GCAAGCCA, the “PBM E-score” value was 0.0317.
With GAATATGC the “PBM E-score” value was -0.152.
With GAGCGTTA the “PBM E-score” value was -0.032.
With ATTGGCAC the “PBM E-score” value was -0.068.
In the case of CTACGGAC, the “PBM E-score” value is reported as -0.186.
For GATACGGA, the “PBM E-score” value was 0.075.
ATTACGGG was tested, and the “PBM E-score” value was -0.00149.
AGTTGTAT was tested, and the “PBM E-score” value was 0.196.
For CCTGTTGA, the “PBM E-score” value was 0.203.
For AGAGTACA, the “PBM E-score” value was 0.107.
ACCCCGCA was tested, and the “PBM E-score” value was -0.035.
In the case of AGACACCA, the “PBM E-score” value is reported as 0.0341.
With AGCAATAA the “PBM E-score” value was -0.174.
For GACTTGCA, the “PBM E-score” value was 0.0227.
For ATGCATGC, the “PBM E-score” value was 0.0276.
TCGACCCA was tested, and the “PBM E-score” value was -0.0787.
AACGGAAC was tested, and the “PBM E-score” value was -0.0752.
With AAAAACAG the “PBM E-score” value was 0.0889.
For AGGCAAAT, the “PBM E-score” value was 0.479.
CTCGCTAA was tested, and the “PBM E-score” value was 0.00347.
ATTCAAAT was tested, and the “PBM E-score” value was -0.0966.
AGATCGCT was tested, and the “PBM E-score” value was -0.174.
CCAAGTCG was tested, and the “PBM E-score” value was -0.155.
In the case of AATTATGA, the “PBM E-score” value is reported as 0.0313.
In the case of GCAGATAA, the “PBM E-score” value is reported as -0.0165.
TCCACAGA was tested, and the “PBM E-score” value was -0.119.
For GAACTCCA, the “PBM E-score” value was -0.0184.
With CGGAGACG the “PBM E-score” value was -0.065.
For CGCCACTA, the “PBM E-score” value was -0.196.
